Assay results as given in publication PMC8641147.
These are yes or no findings as the source states them, for the method shown. Binding seen in cells or lysates may run through a third protein. Some binding calls cover weakened binding; strength is not graded here.

Protein sequences, listed by entry. Tags and fused reporters are not part of them. Lines headed by an entry give the natural chain unless they say otherwise; changes in a name come on top.
UniProt O43791: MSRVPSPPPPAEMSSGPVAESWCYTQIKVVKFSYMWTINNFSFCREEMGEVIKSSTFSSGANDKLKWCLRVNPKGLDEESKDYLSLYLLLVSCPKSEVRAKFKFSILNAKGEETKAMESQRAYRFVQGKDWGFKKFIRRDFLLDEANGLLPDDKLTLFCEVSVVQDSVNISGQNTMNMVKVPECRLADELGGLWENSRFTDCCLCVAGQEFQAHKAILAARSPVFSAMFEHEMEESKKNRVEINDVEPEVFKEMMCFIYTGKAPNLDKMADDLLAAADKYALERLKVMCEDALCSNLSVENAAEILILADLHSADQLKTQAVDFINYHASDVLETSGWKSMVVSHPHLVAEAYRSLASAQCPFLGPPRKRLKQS

Key:
[1] = target: HA-HnRNPK (UniProt P61978); test: co-IP; 293 cells transfected with both tagged partners; 30 h post-transfection 10 uM MG132 for 10 h; IP lysis buffer (25 mM Tris-HCl pH 7.4, 150 mM NaCl, 1 mM EDTA, 1% NP-40, 5% glycerol), antibody-conjugated beads 4 C 4 h; immunoblot of WCL and IP (Fig. 5D, 5G, 6B)
[2] = target: Flag-HnRNPK (Heterogeneous nuclear ribonucleoprotein K) (UniProt P61978); test: as above
[3] = target: HnRNPK as in Fig. 6D (construct not named) (UniProt P61978); test: co-IP; 293 cells transfected with HA-SPOP-WT or prostate cancer-associated SPOP mutants; 10 uM MG132 for 10 h before harvesting; immunoblot of WCL and IP; the HnRNPK construct is not named (Fig. 6D)

Substance	binding [1]	binding [2]	binding [3]
Flag-tagged SPOP WT (speckle-type POZ protein) (from UniProt O43791 1-374)	binds	–	–
HA-tagged SPOP-WT (from UniProt O43791 1-374)	–	binds	binds
Myc-tagged Cullin 4A (from UniProt Q13619 1-759)	–	binds weakly	–

The remaining lines, values ahead:

binding [1]	binding [2]	binding [3]	Substance
–	–	no binding	SPOP F102C (from UniProt O43791 1-374)
–	–	no binding	SPOP W131G (from UniProt O43791 1-374)
